Reference: PubChem BioAssay AID1508623 (National Center for Advancing Translational Sciences (NCATS), 2021)
Screen size: about 48,000 compounds; about 450 (0.94%) were called active. Inconclusive results, whose numbers are uncertain, are shown with a selection of clear calls. The call rests on the fitted dose curve; in most records, active means well fitted inhibition curve with a large enough effect; inconclusive means small, poorly fitted or top-dose-only effect; inactive means no such curve, though single readings can be large or run the other way. Potencies of inconclusive entries are doubtful fits and often do not repeat.
Potency means the concentration at half of the fitted maximal effect; tags describe the fitted curve by direction and shape.

Test: Primary qHTS for Identification of Small Molecule Inhibitors of Huntingtin Promoter Activity; further: nearly all actives have a fitted effect of over 50% in size
Conditions: HEK293 HTT promoter firefly luciferase reporter (activity 0% = vehicle and -100% = no light), 24 h; activity change, negative = inhibition: at 57.5 µM (top of the series)
Outline: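 HEK293 Fluc reporter, 2,500 cells/well, 24 h pre-culture; cpds up to 57.5 uM final, 24 h 37 degrees C; Dual-Glo, 10 min RT; normalized vehicle = 0%, zero RLU = -100%.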
With `CN1CCc2c(c3ccccc3n2Cc2ccc(C(=O)NO)cc2)C1` the Potency was inconclusive: 27.3 µM [inhibitor, partial curve]. In the case of `COc1ccc(-c2cc(C(=O)O)n(Cc3ccccc3)n2)cc1`, the Potency is reported as inconclusive: 39.8 µM [inhibitor, single point]. For `COc1ccc(NC(=O)CSc2nc(-c3cccs3)cc(C(F)(F)F)n2)cc1OC`, the Potency was inconclusive: 2 µM [inhibitor, full curve, poor fit]. For `Cc1ccc(S(=O)(=O)N(CC(O)Cn2c3ccccc3c3ccccc32)c2cccc(C(N)=O)c2)cc1` (stereo unspecified), the Potency was inconclusive: 31.6 µM [inhibitor, single point]. With `Cc1cccc2nc(-c3ccco3)c(Nc3ccc4c(c3)OCO4)n12` the Potency was inconclusive: 12.6 µM [inhibitor, partial curve, poor fit]. For `CCOC(=O)C1CCCN(S(=O)(=O)c2ccc(F)c(C(=O)Nc3ccc(F)c(F)c3)c2)C1` (stereo unspecified), the Potency was inconclusive: 35.5 µM [inhibitor, partial curve, poor fit]. With `CCOC(=O)N[C@@H]1CC[C@@H]2[C@@H](C1)C[C@H]1C(=O)O[C@H](C)[C@H]1[C@@H]2C=Cc1ccc(-c2cccc(F)c2)cn1` the Potency was inconclusive: 24.3 µM [inhibitor, partial curve, poor fit]. For `CCc1ccccc1NC(=O)Cn1c(=O)n(Cc2ccc3c(c2)OCO3)c(=O)c2ccc(C(=O)NC3CCCCC3)cc21`, the “activity change, negative = inhibition” value was inactive: -11.7%. For `Cc1ccccc1-c1nc(CS(=O)(=O)CC(=O)NCC(C)c2ccccc2)c(C)o1` (stereo unspecified), the “activity change, negative = inhibition” value was inactive: -29%. In the case of `O=C(COc1ccccc1Cl)NCC1(N2CCOCC2)CCCCC1`, the Potency is reported as inconclusive: 39.8 µM [inhibitor, single point]. For `CCc1ccc(OCC(=O)Nc2cc3oc4ccccc4c3cc2OC)cc1`, the “activity change, negative = inhibition” value was inactive: 1.78%. With `CCN1CCN(CCCNC(=O)c2cc3c(=O)n(C)c4ccccc4c3s2)CC1` the “activity change, negative = inhibition” value was inactive: 0.494%. In the case of `COC(=O)C1=C(CS(=O)(=O)c2cc(Cl)ccc2OC)NC(=O)NC1c1ccccc1` (stereo unspecified), the Potency is reported as inconclusive: 39.8 µM [inhibitor, single point]. For `COCCCNC(=O)c1oc2c(c1C)-c1nn(Cc3cccc(Cl)c3)cc1CC2`, the Potency was inconclusive: 17.8 µM [inhibitor, partial curve, poor fit]. With `COc1cc(NS(=O)(=O)c2ccc3c(c2)CCN3S(C)(=O)=O)cc(OC)c1` the Potency was inconclusive: 15.8 µM [inhibitor, partial curve, poor fit]. With `O=C(CSc1c2c(nc3ccc(Cl)cc13)CCCC2)N1CCN(c2cccc(Cl)c2)CC1` the Potency was inconclusive: 31.6 µM [inhibitor, single point]. For `Cc1ccc2c(c1)C(c1ccc(F)cc1)N(C(=O)COc1ccc(Cl)cc1Cl)CC(=O)N2` (stereo unspecified), the Potency was inconclusive: 31.6 µM [inhibitor, single point]. With `CN1CCC[C@H]1CCO[C@](C)(c1ccccc1)c1ccc(Cl)cc1` the “activity change, negative = inhibition” value was inactive: 11.5%. With `C[C@H](NCc1ccc2c(c1)nc(NC(=O)c1ccc(-c3cn[nH]c3)s1)n2CCc1ccccc1)C(C)(C)C` the Potency was inconclusive: 8.63 µM [inhibitor, full curve]. With `CCOC(=O)c1cc(-c2ccccc2)n(-c2cccc(C(=O)Nc3ccc(OC)cc3)c2)c1C` the Potency was inconclusive: 15.8 µM [inhibitor, partial curve, poor fit]. For `CSc1cccc(Nc2nc3c(S(=O)(=O)c4ccccc4)nnn3c3ccc(Cl)cc23)c1`, the “activity change, negative = inhibition” value was inactive: 6.02%. In the case of `O=C(c1ccc2c(c1)N(Cc1ccc(F)cc1)C(=O)c1ccccc1S2=O)N1CCC(Cc2ccccc2)CC1` (stereo unspecified), the Potency is reported as inconclusive: 28.2 µM [inhibitor, single point]. For `CC1(C)CC(O)CC(C)(C)N1[O]`, the “activity change, negative = inhibition” value was inactive: -9.33%. For `CCc1ccc(CNC(=O)c2ccc(NC(=O)N3CCCCc4ccccc43)cc2)cc1`, the Potency was inconclusive: 7.94 µM [inhibitor, single point]. In the case of `COc1ccccc1NC(=O)c1cccc(S(=O)(=O)N2CCCCCC2)c1`, the Potency is reported as inconclusive: 39.8 µM [inhibitor, single point]. For `Clc1cccc(-n2ncc3c(N4CCCCC4)ncnc32)c1`, the Potency was inconclusive: 0.447 µM [inhibitor, full curve, poor fit]. With `CCN(c1cccc(C)c1)S(=O)(=O)c1ccc2[nH]cc(C(=O)NCCCOC)c(=O)c2c1` the Potency was inconclusive: 20 µM [inhibitor, partial curve]. In the case of `COc1ccc(C(=O)Nc2nc3c(s2)CCCC3)cc1Cl`, the “activity change, negative = inhibition” value is reported as inactive: 1.69%. With `CCOc1cccc2sc(N3CCN(C(=O)C4CC4)CC3)nc12` the “activity change, negative = inhibition” value was inactive: -10.1%. For `Cc1cccc(N2CCN(C(=O)c3ccc4c(c3)N(Cc3cccc(Cl)c3)C(=O)c3ccccc3S4=O)CC2C)c1` (stereo unspecified), the Potency was inconclusive: 20 µM [inhibitor, partial curve]. For `Cc1cc(C)cc(NC(=O)CCCn2c3ccccc3c(=O)c3ccccc32)c1`, the Potency was inconclusive: 28.2 µM [inhibitor, partial curve, poor fit]. In the case of `O=C(NCc1ccc(F)cc1)c1ccc2nc(N3CCCCC3)sc2c1`, the Potency is reported as active: 8.91 µM. With `CCOc1ccc(NC(=O)c2ccc3c(c2)CCN3S(=O)(=O)c2ccc(Cl)cc2)cc1` the Potency was inconclusive: 15.8 µM [inhibitor, partial curve, poor fit]. With `Fc1cccc(Cl)c1Cn1c(-c2cccs2)nc2ccccc21` the Potency was inconclusive: 17.8 µM [inhibitor, partial curve]. In the case of `Cc1ccc(N2CC(NC(=O)c3ccc(S(=O)(=O)N4CCCC4)cc3)CC2=O)cc1C` (stereo unspecified), the Potency is reported as inconclusive: 25.1 µM [inhibitor, partial curve, poor fit]. For `CCn1cc(C(=O)NCCCN2CCCC(C)C2)c(=O)c2cc(S(=O)(=O)N(C)C3CCCCC3)ccc21` (stereo unspecified), the “activity change, negative = inhibition” value was inactive: -3.44%. For `COc1ccc(CCNc2nc(-c3ccc(OC)c(OC)c3)cc(C(F)(F)F)n2)cc1OC`, the Potency was inconclusive: 35.5 µM [inhibitor, partial curve, poor fit]. For `COc1ccc(-c2nnc(SCC(=O)NC3CCCC3)nc2-c2ccc(OC)c(OC)c2)cc1OC`, the Potency was inconclusive: 39.8 µM [inhibitor, single point]. In the case of `CN(C)CCCN=c1c2ccccc2n(C)c2[nH]c(=O)n(C)c(=O)c12`, the Potency is reported as inconclusive: 43.2 µM [inhibitor, partial curve, poor fit]. In the case of `O=C(O)c1nc(=O)[nH]c(=O)[nH]1`, the “activity change, negative = inhibition” value is reported as inactive: -11.5% [at 25.2 µM]. In the case of `O=C(NCc1ccccc1)C1CCN(S(=O)(=O)c2ccc3c(c2)CCCN3C(=O)C2CCC2)CC1`, the Potency is reported as inconclusive: 25.1 µM [inhibitor, partial curve, poor fit]. With `Cc1cccc(NC(=O)C(=O)NCC(c2cccnc2)N2CCc3ccccc3C2)c1C` (stereo unspecified) the Potency was inconclusive: 28.2 µM [inhibitor, single point]. In the case of `O=C(CCC1N=C2c3ccccc3N=C(SCc3cccc(F)c3)N2C1=O)NCc1cccs1` (stereo unspecified), the “activity change, negative = inhibition” value is reported as inactive: -21.6%. In the case of `Cc1ccc(Cl)cc1N1CCN(C(=O)CCNS(=O)(=O)c2ccc3c(c2)CCN3C(=O)C2CC2)CC1`, the Potency is reported as inconclusive: 28.2 µM [inhibitor, single point]. For `COc1ccc(OC)c(NC(=O)c2cc(S(=O)(=O)NCCc3ccc(Cl)cc3)ccc2F)c1`, the Potency was inconclusive: 31.6 µM [inhibitor, partial curve]. In the case of `CCOc1ccc(CCNC(=O)c2sc3ncccc3c2-n2cccc2)cc1OCC`, the Potency is reported as inconclusive: 20 µM [inhibitor, partial curve, poor fit]. With `CCCN(c1ccc(C(C)C)cc1)S(=O)(=O)c1ccc2c(c1)oc(=O)n2CC(=O)OCC` the Potency was inconclusive: 28.2 µM [inhibitor, single point]. In the case of `COc1ccccc1N1CCN(C(=O)c2cc(S(=O)(=O)N3CCC(C)CC3)cn2C)CC1`, the “activity change, negative = inhibition” value is reported as inactive: -24.4%. In the case of `COc1ccc(-c2nc(CNC(=O)Nc3ccccc3)c(C)o2)cc1`, the Potency is reported as inconclusive: 31.6 µM [inhibitor, partial curve, poor fit]. For `CCOC(=O)c1ccc(N2C(=O)c3n[nH]c(C)c3C2c2ccc(OCC)cc2)cc1` (stereo unspecified), the Potency was inconclusive: 39.8 µM [inhibitor, single point]. In the case of `CCN(Cc1ccccc1)C(=O)c1nn(-c2ccc(OC)cc2)c(=O)c2c1c1ccccc1n2C`, the Potency is reported as inconclusive: 22.4 µM [inhibitor, partial curve, poor fit]. With `COc1ccc(NC(=O)Cn2c(=O)n(-c3cccc(C(F)(F)F)c3)c(=O)c3sccc32)cc1` the Potency was inconclusive: 25.1 µM [inhibitor, single point]. For `Cc1[nH]c2ccccc2c1C1(O)C(=O)N(Cc2ccccc2Cl)c2ccccc21` (stereo unspecified), the “activity change, negative = inhibition” value was inactive: -12.3%. With `COc1cc(OC)cc(C(=O)Nc2ccc3nc(Nc4cccc(C(F)(F)F)c4)cc(C)c3c2)c1` the Potency was inconclusive: 31.6 µM [inhibitor, single point]. With `COc1ccc(N2CCN(c3ncnc4onc(-c5ccc(F)cc5)c34)CC2)cc1` the Potency was inconclusive: 20 µM [inhibitor, partial curve, poor fit]. For `COc1ccc(C(=O)Nc2nnc(C)s2)cc1`, the “activity change, negative = inhibition” value was inactive: 69.3%. With `CC(C)c1ccc(C2c3c(-c4ccccc4O)n[nH]c3C(=O)N2Cc2ccncc2)cc1` (stereo unspecified) the Potency was inconclusive: 25.1 µM [inhibitor, single point]. For `CCCCOC(=O)CSc1nnc(-c2ccc(C)cc2)o1`, the Potency was inconclusive: 17.8 µM [inhibitor, partial curve, poor fit]. With `Cc1ccn2c(Nc3ccc4c(c3)OCCO4)c(-c3cccs3)nc2c1` the “activity change, negative = inhibition” value was inactive: 17.3%. With `Cc1ncc(-c2ccnc(Nc3ccc(S(C)(=O)=O)cc3)n2)n1C(C)C` the Potency was inconclusive: 7.69 µM [inhibitor, full curve]. For `Cc1ccc(NC(=O)C(CC(C)C)NS(=O)(=O)c2ccc3c(c2)oc(=O)n3C)c(C)c1` (stereo unspecified), the “activity change, negative = inhibition” value was inactive: -10.9%.
